{"source": "the supplement of paper PMC10037445", "key": {"RAW-Dual [1]": {"test_system": "RAW-Dual", "assay": "IRF Lucia reporter activity, fold change vs agonist alone; cytotoxicity flag (confluency mask): not cytotoxic; higher = enhanced IRF activity", "summary_of_the_method": "(§1)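 Reporter activity is given as fold change relative to agonist-alone wells. To measure it, 50 nL of library stock was pin-tooled onto RAW-Dual macrophages (50,000 cells/well, DMEM, 384-well plates), a PRR agonist followed 1 h later, and cells stayed at 37 °C, 5% CO2. Twenty hours on, supernatant was assayed for IRF (QuantiLuc luminescence) and NF-κB (QuantiBlue, 620 nm absorbance), and wells under 70% of agonist-control IncuCyte confluency in both mask sets were marked cytotoxic.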"}, "RAW-Dual [2]": {"test_system": "RAW-Dual", "assay": "IRF Lucia reporter activity, fold change vs agonist alone; cytotoxicity flag (confluency mask): cytotoxic (confluency <70% of control); higher = enhanced IRF activity", "summary_of_the_method": "as §1"}, "RAW-Dual [3]": {"test_system": "RAW-Dual", "assay": "IRF Lucia reporter activity, fold change vs agonist alone; higher = enhanced IRF activity", "conditions": "agonist: MPLA (TLR4) […]", "summary_of_the_method": "as §1"}, "[4]": {"conditions": "agonist: 3'3'-cGAMP (STING) 10 ug/mL"}, "[5]": {"conditions": "library stock concentration (final ~1000-fold dilution): 10 mM, cytotoxicity flag (confluency mask): cytotoxic (confluency <70% of control)"}, "[6]": {"conditions": "library stock concentration (final ~1000-fold dilution): 10 mM, cytotoxicity flag (confluency mask): not cytotoxic"}}, "note": "Over roughly 2,900 compounds, “IRF Lucia reporter activity, fold change vs agonist alone” has its median near 0.9; the highest 2% begin near 2.8. Some of the results follow.", "data": [{"compound": "O.O=C(O)c1ncccc1[O-].O=C([O-])c1ncccc1[O-].[H+].[O]=[V][OH]", "note": "(library stock concentration (final ~1000-fold dilution): 10 mM)", "values": [{"measurement": "IRF Lucia reporter activity", "setting": "RAW-Dual [1]; [4]", "result": 0.574}, {"measurement": "IRF Lucia reporter activity", "setting": "RAW-Dual [1]; agonist: LPS (TLR4) 0.1 ug/mL", "result": 1.3}]}, {"compound": "C=C1C(=O)O[C@H]2[C@H]1CC/C(C)=C\\CC[C@@]1(C)O[C@@H]21", "note": "(library stock concentration (final ~1000-fold dilution): 10 mM)", "values": [{"measurement": "IRF Lucia reporter activity", "setting": "RAW-Dual [1]; [4]", "result": 0.0236}, {"measurement": "IRF Lucia reporter activity", "setting": "RAW-Dual [1]; agonist: LPS (TLR4) 0.1 ug/mL", "result": 0.0241}]}, {"compound": "CC(OCC1(c2ccccc2)CCC2(CCC(=O)N2)CN1)c1cc(C(F)(F)F)cc(C(F)(F)F)c1", "note": "(centres undefined) (library stock concentration (final ~1000-fold dilution): 10 mM)", "values": [{"measurement": "IRF Lucia reporter activity", "setting": "RAW-Dual [2]; [4]", "result": 0.981}, {"measurement": "IRF Lucia reporter activity", "setting": "RAW-Dual [2]; agonist: LPS (TLR4) 0.1 ug/mL", "result": 0.747}]}, {"compound": "CC(OCC1(c2ccccc2)CCC2(CCC(=O)N2)CN1)c1cc(C(F)(F)F)cc(C(F)(F)F)c1", "note": "(centres undefined)", "values": [{"measurement": "IRF Lucia reporter activity", "setting": "RAW-Dual [3]; [5]", "result": 0.916}]}, {"compound": "N=C(N)NCCN1CCCCCCC1.O=S(=O)(O)O", "note": "(library stock concentration (final ~1000-fold dilution): 10 mM water)", "values": [{"measurement": "IRF Lucia reporter activity", "setting": "RAW-Dual [1]; [4]", "result": 1.05}, {"measurement": "IRF Lucia reporter activity", "setting": "RAW-Dual [1]; agonist: LPS (TLR4) 0.1 ug/mL", "result": 0.869}]}, {"compound": "N=C(N)NCCN1CCCCCCC1.O=S(=O)(O)O", "values": [{"measurement": "IRF Lucia reporter activity", "setting": "RAW-Dual [3]; library stock concentration (final ~1000-fold dilution): 10 mM water, cytotoxicity flag (confluency mask): not cytotoxic", "result": 1.32}]}, {"compound": "CCc1nc(C(N)=O)c(Nc2ccc(N3CCC(N4CCN(C)CC4)CC3)c(OC)c2)nc1NC1CCOCC1", "note": "(library stock concentration (final ~1000-fold dilution): 10 mM)", "values": [{"measurement": "IRF Lucia reporter activity", "setting": "RAW-Dual [1]; [4]", "result": 0.047}, {"measurement": "IRF Lucia reporter activity", "setting": "RAW-Dual [1]; agonist: LPS (TLR4) 0.1 ug/mL", "result": 0.233}]}, {"compound": "CNS(=O)(=O)Nc1nccc(Cc2c(C)c3ccc(Oc4ncccn4)cc3oc2=O)c1F", "values": [{"measurement": "IRF Lucia reporter activity", "setting": "RAW-Dual [3]; [6]", "result": 2.22}]}, {"compound": "CNS(=O)(=O)Nc1nccc(Cc2c(C)c3ccc(Oc4ncccn4)cc3oc2=O)c1F", "note": "(library stock concentration (final ~1000-fold dilution): 10 mM)", "values": [{"measurement": "IRF Lucia reporter activity", "setting": "RAW-Dual [1]; [4]", "result": 0.63}, {"measurement": "IRF Lucia reporter activity", "setting": "RAW-Dual [1]; agonist: LPS (TLR4) 0.1 ug/mL", "result": 2.41}]}, {"compound": "CC1(C(=O)O)CCC2(C)CCC3(C)C(=CC(=O)C4C5(C)CCC(OC6OC(C(=O)O)C(O)C(O)C6OC6OC(C(=O)O)C(O)C(O)C6O)C(C)(C)C5CCC43C)C2C1.N.N", "note": "(centres undefined) (library stock concentration (final ~1000-fold dilution): 10 mM)", "values": [{"measurement": "IRF Lucia reporter activity", "setting": "RAW-Dual [1]; [4]", "result": 0.931}, {"measurement": "IRF Lucia reporter activity", "setting": "RAW-Dual [1]; agonist: LPS (TLR4) 0.1 ug/mL", "result": 0.653}]}, {"compound": "CC1(C(=O)O)CCC2(C)CCC3(C)C(=CC(=O)C4C5(C)CCC(OC6OC(C(=O)O)C(O)C(O)C6OC6OC(C(=O)O)C(O)C(O)C6O)C(C)(C)C5CCC43C)C2C1.N.N", "note": "(centres undefined)", "values": [{"measurement": "IRF Lucia reporter activity", "setting": "RAW-Dual [3]; [6]", "result": 0.958}]}, {"compound": "COc1ccc(CC(=O)Nc2nc3c(s2)CCc2ccccc2-3)cc1OC", "note": "(library stock concentration (final ~1000-fold dilution): 10 mM)", "values": [{"measurement": "IRF Lucia reporter activity", "setting": "RAW-Dual [1]; [4]", "result": 0.989}, {"measurement": "IRF Lucia reporter activity", "setting": "RAW-Dual [1]; agonist: LPS (TLR4) 0.1 ug/mL", "result": 0.961}]}, {"compound": "Cl.OC1CCC(Nc2ncc3nc(Nc4c(F)cc(F)cc4F)n(C4CCOC4)c3n2)CC1", "note": "(centres undefined) (library stock concentration (final ~1000-fold dilution): 10 mM)", "values": [{"measurement": "IRF Lucia reporter activity", "setting": "RAW-Dual [1]; [4]", "result": 0.659}, {"measurement": "IRF Lucia reporter activity", "setting": "RAW-Dual [1]; agonist: LPS (TLR4) 0.1 ug/mL", "result": 0.884}]}, {"compound": "O=C1c2c(O)cc(O)cc2OC(c2ccc(O)c(O)c2)C1O", "note": "(centres undefined) (library stock concentration (final ~1000-fold dilution): 10 mM)", "values": [{"measurement": "IRF Lucia reporter activity", "setting": "RAW-Dual [1]; [4]", "result": 0.976}, {"measurement": "IRF Lucia reporter activity", "setting": "RAW-Dual [1]; agonist: LPS (TLR4) 0.1 ug/mL", "result": 1.01}]}, {"compound": "O=C1c2c(O)cc(O)cc2OC(c2ccc(O)c(O)c2)C1O", "note": "(centres undefined)", "values": [{"measurement": "IRF Lucia reporter activity", "setting": "RAW-Dual [3]; [6]", "result": 1.04}]}, {"compound": "FC(F)(F)c1ccc(/C=C/c2nc(COc3ccc(CCCCn4ccnn4)cc3)co2)cc1", "values": [{"measurement": "IRF Lucia reporter activity", "setting": "RAW-Dual [3]; [6]", "result": 1.34}]}, {"compound": "FC(F)(F)c1ccc(/C=C/c2nc(COc3ccc(CCCCn4ccnn4)cc3)co2)cc1", "note": "(library stock concentration (final ~1000-fold dilution): 10 mM)", "values": [{"measurement": "IRF Lucia reporter activity", "setting": "RAW-Dual [1]; [4]", "result": 1.07}, {"measurement": "IRF Lucia reporter activity", "setting": "RAW-Dual [1]; agonist: LPS (TLR4) 0.1 ug/mL", "result": 1.43}]}, {"compound": "COc1cc2c(cc1OC)C1C(=O)c3ccc4c(c3OC1CO2)C=CC(C)(C)O4", "note": "(centres undefined) (library stock concentration (final ~1000-fold dilution): 10 mM)", "values": [{"measurement": "IRF Lucia reporter activity", "setting": "RAW-Dual [1]; [4]", "result": 0.496}, {"measurement": "IRF Lucia reporter activity", "setting": "RAW-Dual [1]; agonist: LPS (TLR4) 0.1 ug/mL", "result": 1.51}]}, {"compound": "C#CCN(C)CCCOc1ccc(Cl)cc1Cl.Cl", "values": [{"measurement": "IRF Lucia reporter activity", "setting": "RAW-Dual [3]; [6]", "result": 1.12}]}, {"compound": "C#CCN(C)CCCOc1ccc(Cl)cc1Cl.Cl", "note": "(library stock concentration (final ~1000-fold dilution): 10 mM)", "values": [{"measurement": "IRF Lucia reporter activity", "setting": "RAW-Dual [1]; [4]", "result": 1.06}, {"measurement": "IRF Lucia reporter activity", "setting": "RAW-Dual [1]; agonist: LPS (TLR4) 0.1 ug/mL", "result": 1.19}]}, {"compound": "Cc1cnc(NC(=O)Nc2cc(Br)c(C)cc2OCC2CNCCO2)cn1", "note": "(centres undefined)", "values": [{"measurement": "IRF Lucia reporter activity", "setting": "RAW-Dual [3]; [6]", "result": 1.15}]}, {"compound": "Cc1cnc(NC(=O)Nc2cc(Br)c(C)cc2OCC2CNCCO2)cn1", "note": "(centres undefined) (library stock concentration (final ~1000-fold dilution): 10 mM)", "values": [{"measurement": "IRF Lucia reporter activity", "setting": "RAW-Dual [1]; [4]", "result": 1.01}, {"measurement": "IRF Lucia reporter activity", "setting": "RAW-Dual [1]; agonist: LPS (TLR4) 0.1 ug/mL", "result": 0.821}]}, {"compound": "CC(Oc1cc(-c2cnn(C3CCNCC3)c2)cnc1N)c1c(Cl)ccc(F)c1Cl", "note": "(centres undefined)", "values": [{"measurement": "IRF Lucia reporter activity", "setting": "RAW-Dual [3]; [5]", "result": 0.0653}, {"measurement": "IRF Lucia reporter activity", "setting": "RAW-Dual [3]; [6]", "result": 0.0291}]}, {"compound": "CC(Oc1cc(-c2cnn(C3CCNCC3)c2)cnc1N)c1c(Cl)ccc(F)c1Cl", "note": "(centres undefined) (library stock concentration (final ~1000-fold dilution): 10 mM)", "values": [{"measurement": "IRF Lucia reporter activity", "setting": "RAW-Dual [1]; [4]", "result": 0.023}, {"measurement": "IRF Lucia reporter activity", "setting": "RAW-Dual [1]; agonist: LPS (TLR4) 0.1 ug/mL", "result": 0.0245}, {"measurement": "IRF Lucia reporter activity", "setting": "RAW-Dual [2]; [4]", "result": 0.13}, {"measurement": "IRF Lucia reporter activity", "setting": "RAW-Dual [2]; agonist: LPS (TLR4) 0.1 ug/mL", "result": 0.129}]}, {"compound": "O=C(CCCCCCC(=O)N/N=C/c1ccc(N(c2ccccc2)c2ccccc2)cc1)NO", "note": "(library stock concentration (final ~1000-fold dilution): 10 mM)", "values": [{"measurement": "IRF Lucia reporter activity", "setting": "RAW-Dual [2]; [4]", "result": 0.0199}, {"measurement": "IRF Lucia reporter activity", "setting": "RAW-Dual [2]; agonist: LPS (TLR4) 0.1 ug/mL", "result": 0.533}]}]}
